Results from PubChem BioAssay AID504339 (National Center for Advancing Translational Sciences (NCATS), 2011).
About 17,000 (4.4%) of roughly 390,000 compounds were called active. The shares of active, inactive and inconclusive entries below differ from those in the screen. Calls come from the whole dose curve; as a rule, active = well fitted inhibition curve with a large enough effect; inconclusive = small, poorly fitted or top-dose-only effect; inactive = no such curve, though single readings can be large or run the other way. Potencies of inconclusive entries are doubtful fits and often do not repeat.
% is set by controls: 0 for no effect and ±100 for the full control effect; potency is the fitted concentration of half-maximal effect; tags give direction and shape of the fitted curve.
Note: nearly all actives have a fitted effect of over 50% in size.

The molecules below were run against Lysine-specific demethylase 4A (Homo sapiens) (UniProt O75164) (assay: qHTS Assay for Inhibitors of JMJD2A-Tudor Domain). Settings: AlphaScreen JMJD2A-Tudor / H3K4me3 peptide binding; activity change, negative = inhibition: at 114 µM (top of the series).
Chain of UniProt O75164 (O75164 whole entry, looked up, the tested form may be a part): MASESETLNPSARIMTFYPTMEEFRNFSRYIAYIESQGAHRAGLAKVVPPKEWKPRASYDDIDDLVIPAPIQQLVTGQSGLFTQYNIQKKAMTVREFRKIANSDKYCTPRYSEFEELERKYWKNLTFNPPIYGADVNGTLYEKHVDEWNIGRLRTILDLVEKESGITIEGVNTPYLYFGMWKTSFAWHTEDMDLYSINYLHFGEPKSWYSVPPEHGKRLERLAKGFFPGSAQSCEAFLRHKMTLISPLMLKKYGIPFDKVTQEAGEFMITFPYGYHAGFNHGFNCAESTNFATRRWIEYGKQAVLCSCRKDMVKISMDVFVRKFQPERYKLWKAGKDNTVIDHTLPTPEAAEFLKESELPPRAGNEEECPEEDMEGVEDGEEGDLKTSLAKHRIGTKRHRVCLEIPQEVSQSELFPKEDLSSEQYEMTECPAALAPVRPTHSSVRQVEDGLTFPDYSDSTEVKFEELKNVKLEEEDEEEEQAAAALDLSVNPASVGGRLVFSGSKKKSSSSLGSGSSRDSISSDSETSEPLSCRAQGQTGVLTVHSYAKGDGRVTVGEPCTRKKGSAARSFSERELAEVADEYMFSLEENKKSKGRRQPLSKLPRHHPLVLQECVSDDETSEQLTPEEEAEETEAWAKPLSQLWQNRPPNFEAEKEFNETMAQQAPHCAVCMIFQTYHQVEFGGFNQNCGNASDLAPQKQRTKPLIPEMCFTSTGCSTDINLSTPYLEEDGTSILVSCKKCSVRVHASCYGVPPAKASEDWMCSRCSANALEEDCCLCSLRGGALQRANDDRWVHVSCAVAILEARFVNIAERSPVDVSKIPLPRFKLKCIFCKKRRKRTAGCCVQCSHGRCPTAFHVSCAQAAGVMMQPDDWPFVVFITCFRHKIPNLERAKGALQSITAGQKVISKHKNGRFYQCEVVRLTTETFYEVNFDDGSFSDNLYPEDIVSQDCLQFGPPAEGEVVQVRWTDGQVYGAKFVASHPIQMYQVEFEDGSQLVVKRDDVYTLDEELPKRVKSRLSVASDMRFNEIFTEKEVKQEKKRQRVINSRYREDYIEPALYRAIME
`C[C@@H]1CC=C[C@@H]2[C@H]1C(=O)N(Cc1ccccc1)[C@H]2c1cccc(Br)c1` was tested, and the “activity change, negative = inhibition” value was inactive: -2.16%.
In the case of `O=C(N/N=C/c1ccc(F)cc1)c1cc(-c2ccc3c(c2)OCO3)n[nH]1`, the Potency is reported as inconclusive: 39.8 µM [inhibitor, partial curve, poor fit].
In the case of `O=C(Nc1ccc(Cl)cc1)c1ccco1`, the Potency is reported as inconclusive: 89.1 µM [inhibitor, single point].
In the case of `Cc1ccc(Cl)cc1NS(=O)(=O)c1ccc2oc(=O)c3ncn(C)c3c2c1`, the “activity change, negative = inhibition” value is reported as inactive: 5.86%.
With `CC(C)(C)n1nnnc1C(c1ccccn1)N(Cc1ccccc1)Cc1ccc(Cl)cc1` (configuration not stated) the Potency was inconclusive: 50.1 µM [inhibitor, partial curve, poor fit].
`C/C(=N\Nc1ccccc1C)c1cccnc1` was tested, and the Potency was active: 50.1 µM.
With `COc1ccc(-c2cn3nc(N4CCCC(C(=O)Nc5cc(C)ccc5C)C4)sc3n2)cc1` (configuration not stated) the Potency was inconclusive: 56.2 µM [inhibitor, partial curve].
For `CN(C)c1ccc(/C=C/c2nc3ccccc3s2)cc1`, the Potency was active: 20 µM.
For `O=C(O)C(=O)/C(=C\c1ccc([N+](=O)[O-])cc1)c1ccc2ccccc2n1`, the Potency was inconclusive: 56.2 µM [inhibitor, partial curve, poor fit].
For `Cc1ccc(S(=O)(=O)N(C)c2cccc3cccnc23)cc1`, the “activity change, negative = inhibition” value was inactive: -3.45%.
In the case of `Cc1nc2ccccn2c1/C(O)=C1\C(=O)C(=O)N(CCN(C)C)C1c1cccnc1` (configuration not stated), the Potency is reported as inconclusive: 22.4 µM [inhibitor, full curve].
With `CCOc1ccc(NC(=O)c2cccc(S(=O)(=O)Nc3c(C)n(C)n(-c4ccccc4)c3=O)c2)cc1` the “activity change, negative = inhibition” value was inactive: -2.7%.
`CC1(C)C=Cc2c(c3c(c4c(=O)c(-c5ccc(O)cc5)coc24)OC(C)(C)CC3)O1` was tested, and the Potency was inconclusive: 56.2 µM [inhibitor, partial curve].
`COc1ccc(Br)cc1CNC(=O)c1cnc2sc(N3CCCC3)nn2c1=O` was tested, and the “activity change, negative = inhibition” value was inactive: -18.3%.
`O=C(CN1C(=O)S/C(=C\c2ccc(Cl)cc2)C1=O)NCCCn1ccnc1` was tested, and the Potency was inconclusive: 79.4 µM [inhibitor, partial curve].
With `Cc1cccc(CC(C)NC(=O)c2oc3c(F)cccc3c2C)n1` (configuration not stated) the “activity change, negative = inhibition” value was inactive: -3.42%.
With `Cc1ccc(Cl)cc1NS(=O)(=O)c1ccc2c(c1)NC(=O)CCS2` the “activity change, negative = inhibition” value was inactive: -17.2%.
For `CC(=O)N=c1nc(-c2ccccc2)n(-c2ccccc2)s1`, the “activity change, negative = inhibition” value was inactive: -34.6% [at 57.1 µM].
`NC(=O)c1cccc2c3c([nH]c12)CCCC3` was tested, and the Potency was inconclusive: 79.4 µM [inhibitor, single point].
`COc1ccc(CNC(=O)CSc2nnc(C)s2)cc1` was tested, and the “activity change, negative = inhibition” value was inactive: -0.746%.
`COc1cc(OC)cc(C(=O)NCc2ccc3c(c2)OCO3)c1` was tested, and the Potency was inconclusive: 100 µM [inhibitor, partial curve, poor fit].
For `O=C(COC(=O)c1cc(Cl)cc(Cl)c1)NCc1ccco1`, the Potency was inconclusive: 56.2 µM [inhibitor, partial curve].
With `COc1ccc(OC)c(CCNC(=O)CCc2cn(Cc3cc(C)ccc3C)c3ccccc23)c1` the Potency was inconclusive: 7.94 µM [inhibitor, full curve, poor fit].
With `Cc1cc(C(=O)CN2C(=O)C(=O)N(CC(C)C)C2=O)c(C)n1-c1ccccc1F` the Potency was inconclusive: 56.2 µM [inhibitor, partial curve].
For `Cc1ccsc1/C=N/N1CCN(C2c3ccccc3-c3ccccc32)CC1`, the Potency was inconclusive: 56.2 µM [inhibitor, partial curve].
In the case of `CCOC(=O)c1cccc(NC(=O)c2cnc3ccccc3n2)c1`, the Potency is reported as inconclusive: 89.1 µM [inhibitor, single point].
With `CCc1cccc2c(-c3ccccc3)nc(SCC(=O)Nc3ccccc3OC)nc12` the “activity change, negative = inhibition” value was inactive: -19.5%.
In the case of `OCCN(CCO)c1ccc(C(c2ccccc2Cl)c2ccc(N(CCO)CCO)cc2Cl)c(Cl)c1`, the Potency is reported as inconclusive: 50.1 µM [inhibitor, partial curve].
In the case of `COC(=O)/C=C1/S/C(=N/NC(=O)c2ccccc2)NC1=O`, the “activity change, negative = inhibition” value is reported as inactive: -0.83%.
With `CC(CN1CCN(C)CC1)OC(=O)c1ccc(Cl)cc1Cl` (configuration not stated) the Potency was inconclusive: 79.4 µM [inhibitor, single point].
For `COc1cc(/C=C2\SC(c3ccccc3)=NC2=O)cc(Cl)c1O`, the Potency was active: 6.31 µM.
`Cc1csc(NC(=O)C2CCCC2)n1` was tested, and the “activity change, negative = inhibition” value was inactive: -16.2%.
In the case of `Cc1cccc(N2CCN(C(=O)C3CCCN(S(=O)(=O)c4ccc5c(c4)oc(=O)n5C)C3)CC2)c1C` (configuration not stated), the Potency is reported as inconclusive: 3.55 µM [inhibitor, full curve, poor fit].
`CCC(CO)Oc1cc(NCc2ccccc2F)c2ncn(C(C)C)c2c1` (configuration not stated) was tested, and the Potency was inconclusive: 50.1 µM [inhibitor, partial curve].
In the case of `CC1(C(=O)O)CCC(C(=O)N2CCCCC2)C1(C)C` (configuration not stated), the “activity change, negative = inhibition” value is reported as inactive: -4.9%.
For `Fc1ccccc1-c1n[nH]c(=S)n1CC1CCCO1` (configuration not stated), the “activity change, negative = inhibition” value was inactive: -10.5%.
In the case of `CCc1ccccc1-n1c(SCC(=O)N2CCCC2)nnc1-c1ccccn1`, the Potency is reported as inconclusive: 89.1 µM [inhibitor, single point].
In the case of `Cc1ccc(CNC(=O)c2ccc3c(c2)c(C)c(C)n3Cc2ccccc2)o1`, the Potency is reported as inconclusive: 22.4 µM [inhibitor, full curve, poor fit].
In the case of `O=C(OCCCCN1C(=O)c2ccccc2C1=O)c1n[nH]c2ccccc12`, the Potency is reported as inconclusive: 79.4 µM [inhibitor, partial curve].
With `CCCNC(=S)N1CCN(C)CC1` the Potency was active: 8.91 µM.
`CC(=O)c1ccccc1OCCCN1CCCCC1` was tested, and the Potency was active: 3.16 µM.
`Cc1ccc(CN2CCN(/N=C/c3ccc(C)s3)CC2)cc1` was tested, and the Potency was inconclusive: 11.2 µM [inhibitor, full curve, poor fit].
With `O=C(O)CSc1ncnc2c1sc1nc(-c3ccccc3)c3c(c12)CCC3` the Potency was active: 50.1 µM.
With `c1csc(Cc2nn3c(-c4n[nH]c5c4CCC5)nnc3s2)c1` the Potency was inconclusive: 3.55 µM [inhibitor, single point].
For `CCOc1cc(C(=O)NCc2ccc3c(c2)CCN3C(=O)c2ccc(F)cc2)cc(OCC)c1OCC`, the “activity change, negative = inhibition” value was inactive: -25.7%.
In the case of `CCCCn1c(SCC(=O)OCC)nc2c(sc(=S)n2-c2ccccc2OC)c1=O`, the “activity change, negative = inhibition” value is reported as inactive: -27.1%.
In the case of `COc1cc(C2N(c3ccccc3)CCN2c2ccccc2)cc(OC)c1OC`, the Potency is reported as inconclusive: 56.2 µM [inhibitor, partial curve].
For `COc1ccc(CNC(=O)C(C)Sc2nc(-c3ccccc3)cc(C(F)(F)F)n2)cc1` (configuration not stated), the “activity change, negative = inhibition” value was inactive: -9.62%.
In the case of `COc1ccc(NC(=O)CN(C)C(=O)c2cc(-c3ccc(C)o3)nc3ccccc23)cc1`, the Potency is reported as active: 89.1 µM.
For `O=C(OCC#CCSc1nnc(-c2cccc3ccccc23)o1)C1CCC1`, the “activity change, negative = inhibition” value was inactive: 101%.
For `O=C(CSc1nccn1-c1ccc(Cl)cc1)Nc1cccc2ccccc12`, the Potency was inconclusive: 20 µM [inhibitor, full curve].
For `CSc1ccc(CCNC(=O)c2ccc3c(c2)nc2n3CCCCC2)cc1`, the “activity change, negative = inhibition” value was inactive: -20.1%.
In the case of `CCOC(=O)Cn1c(=O)n(C2CCCCC2)c2nc(-c3ccc(OCC)cc3)nc(C(N)=O)c21`, the “activity change, negative = inhibition” value is reported as inactive: -25.2%.
In the case of `O=C(Nc1ccc(Br)c2ccccc12)c1ccc2ccccc2c1O`, the Potency is reported as inconclusive: 44.7 µM [inhibitor, full curve].
With `CCOC(=O)N1CCN(C(=O)/C(=C/c2cccc3ccccc23)NC(=O)c2ccc(OC)cc2)CC1` the Potency was inconclusive: 39.8 µM [inhibitor, partial curve].
For `CN1c2ccccc2-c2nc3ccccc3n2C1c1cccs1` (configuration not stated), the “activity change, negative = inhibition” value was inactive: 102%.
With `Nc1cc(S(=O)(=O)Nc2ccccc2Cl)ccc1N1CCCC1` the Potency was inconclusive: 79.4 µM [inhibitor, partial curve].
With `O=C(Nc1nc(-c2ccccn2)cs1)c1ccc(-c2ccccc2F)o1` the Potency was inconclusive: 39.8 µM [inhibitor, partial curve].
For `C=CCNC(=S)NNC(=O)CSc1nc2ccccc2s1`, the “activity change, negative = inhibition” value was inactive: -12.6%.
`CCOC(=O)c1c(C)oc2c1c(C=NCc1ccccn1)c(O)c1ccccc12` was tested, and the Potency was inconclusive: 11.2 µM [inhibitor, full curve].
With `CCOC(=O)C(Cc1ccccc1)(Cc1ccccc1)C(C)=O` the “activity change, negative = inhibition” value was inactive: 89.2%.
In the case of `CC(O)CN(CCC(N)=O)CCC(N)=O` (configuration not stated), the Potency is reported as inconclusive: 39.8 µM [inhibitor, single point].
In the case of `COc1ccc(OC)c(NC(=O)COC(=O)c2ccc(OC)c(S(=O)(=O)N3CCCC3)c2)c1`, the “activity change, negative = inhibition” value is reported as inactive: 0.709%.
For `Cc1ccn(CCC(=O)Nc2ccc3c(c2)OCO3)n1`, the Potency was inconclusive: 56.2 µM [inhibitor, partial curve].
For `COc1cccc(CNC(=O)Cc2ccc(NC(=O)C3=C(C)OCCS3)cc2)c1`, the Potency was inconclusive: 63.1 µM [inhibitor, partial curve, poor fit].
In the case of `CCc1ccc(CNC(=O)C2CCCN(c3nnc(C)c4c(C)n(-c5ccc(OC)cc5)nc34)C2)cc1` (configuration not stated), the Potency is reported as inconclusive: 50.1 µM [inhibitor, partial curve].
For `COc1cc(-c2nc3ccccn3c2/N=C/c2cccc(OC)c2O)ccc1O`, the Potency was inconclusive: 15.8 µM [inhibitor, full curve, poor fit].
`Oc1c(C(c2ccccc2)N2CCN(c3cccc(Cl)c3)CC2)sc2nc(-c3ccco3)nn12` (configuration not stated) was tested, and the Potency was inconclusive: 31.6 µM [inhibitor, full curve].
`COCCCN1C(=O)C(=O)/C(=C(/O)c2ccccc2)C1c1ccc2c(c1)OCO2` (configuration not stated) was tested, and the Potency was inconclusive: 89.1 µM [inhibitor, single point].
With `CN(C)S(=O)(=O)c1ccc(C(=O)OCC(=O)c2csc(N3CCCCC3)n2)cc1` the “activity change, negative = inhibition” value was inactive: -35.4%.
`COc1cc(/C=C(/C(=O)c2cccs2)c2nc3ccccc3[nH]2)cc(OC)c1O` was tested, and the Potency was inconclusive: 28.2 µM [inhibitor, full curve].
With `CC(C)C[C@@H]1CN=C(N)N1C[C@@H]1CCCN1C[C@@H](C(C)C)N1C[C@@H](Cc2ccccc2)N(CCc2ccc(Cl)c(Cl)c2)C1=N` the Potency was inconclusive: 79.4 µM [inhibitor, partial curve].
